According to the supplement of paper PMC3334620:
Whole data set: some 33,000 sequences, median “E-score (-0.5 to 0.5)” near -0.036, cut for the highest 2% near 0.37. The list shows a part of the results.

target: T1, Yer064c (UniProt P40041); assay: PBM E-score (8-mer binding enrichment) (E-score (-0.5 to 0.5)); higher = stronger / more preferred TF binding; most listed sequences are background and not binding sites; conditions: protein concentration: 200 nM; construct: GST-full length
T1 sequence: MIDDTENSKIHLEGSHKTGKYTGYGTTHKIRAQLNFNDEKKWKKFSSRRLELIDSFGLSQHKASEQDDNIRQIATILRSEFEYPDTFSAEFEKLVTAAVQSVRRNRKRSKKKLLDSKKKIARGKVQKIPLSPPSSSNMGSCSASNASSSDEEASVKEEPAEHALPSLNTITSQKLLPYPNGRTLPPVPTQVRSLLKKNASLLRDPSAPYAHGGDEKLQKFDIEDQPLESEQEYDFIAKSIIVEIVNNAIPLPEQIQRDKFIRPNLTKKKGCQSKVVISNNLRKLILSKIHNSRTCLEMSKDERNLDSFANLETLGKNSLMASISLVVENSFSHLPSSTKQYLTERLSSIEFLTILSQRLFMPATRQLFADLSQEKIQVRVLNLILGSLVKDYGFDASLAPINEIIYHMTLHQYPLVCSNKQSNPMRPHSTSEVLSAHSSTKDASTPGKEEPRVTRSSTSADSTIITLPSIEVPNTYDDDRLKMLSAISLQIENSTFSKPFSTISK
Method in brief: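 Full-length yeast transcription factors or their DNA-binding domains, GST-tagged and expressed with PURExpress, were applied at about 100-200 nM to universal all-10-mer Agilent arrays. These arrays had been made double-stranded by primer extension on fresh or once-stripped slides. Detection used fluorescent anti-GST, normalisation used masliner, and E-scores for ungapped eight-base words pooled with reverse complements came from the Universal PBM Analysis Suite.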

Sequence | PBM E-score
ACACCTAC | -0.0818
ACCGACCA | -0.104
ATCAAGGA | 0.126
AAAGATCA | 0.137
CCTTTCCC | -0.198
ATGTAAAA | -0.0296
ACGATTGG | -0.0358
CCATCTCG | -0.0477
CTGGTGTA | -0.14
AGGGAGCG | -0.142
ATGCCTTC | -0.366
AGCGGTTA | 0.0202
CATACCGG | 0.00278
ATATTCAT | 0.0747
AAAATCAG | 0.15
CTCTTATC | 0.137
CTTATCAA | 0.132
ATGGATTG | 0.19
CAAGGTAA | -0.036
AGTACTAC | 0.173
GCTCTACA | -0.134
GGCTGGCA | -0.301
AGAGAAGC | -0.0756
AACCATCA | 0.226
ATTCATAC | 0.278

Sequence | PBM E-score
ATGAGTGC | 0.226
ATGCAAAT | -0.0663
CTAAAAAA | 0.163
ACAACAGG | -0.041
GATTTTAA | 0.00314
CTGCACAG | -0.0498
AGTTTTGC | 0.0632
CGGACTAA | 0.342
AGGGATGG | -0.114
GGGAAGAC | 0.187
TAGCTAAA | 0.0446
ACGACGCA | -0.135
AATCCCCA | -0.131
CACACCAG | -0.0384
CTTCGGGC | -0.184
GGTACTAC | 0.166
GCGAAGCA | -0.156
CCACTAAG | 0.0593
AGTGGCAT | -0.0556
AGTAGCCC | -0.0847
CGCAGTTC | -0.194
GGAGGACC | -0.37
TATTGGGA | 0.0701
AGATTTTA | 0.172
AGGACTGC | 0.13

Sequence | PBM E-score
AGACTCAG | 0.434
CCCGATTA | 0.0668
CACCGATG | 0.0254
GAATTCAC | -0.139
GTATCCAA | -0.0305
CTCGTTGA | 0.103
TCCAATCA | 0.126
AAATTAGA | 0.177
CCATGTGA | 0.0726
CACCGGAA | -0.0773
GAAAGTCC | -0.215
ATTGACAG | 0.1
ACCTTTGA | 0.15
ATTACGCG | 0.00024
ACGTCATG | 0.21
ACCAGCGA | -0.136
CGGGTAAC | -0.0478
GCAATCGA | -0.0206
ATCCTCAA | 0.198
CAGCCGCA | -0.202
ACAAGGGT | -0.172
TCATGGAA | 0.175
AGTAGCAC | -0.0101
GGAACTCA | 0.191
ACATGGGT | 0.147

Sequence | PBM E-score
AAGGATAG | 0.0139
CTGACCGC | -0.071
TCATAGGA | 0.346
TAAAGAAA | 0.0535
AGCTACGC | -0.2
ACGAACGC | -0.112
ACGTTAGG | -0.158
ACTGAAAA | -0.0436
GGTAGTCA | 0.479
ATCACCAG | 0.0995
CGCGGATA | 0.139
ACGCCTCG | -0.28
CTTAGCTA | 0.0847
CTTCTCTC | -0.0307
GCGTTGTA | -0.156
CCATGAAA | -0.0342
CTAGCCAC | -0.097
GTATTCGA | -0.351
GTGGGCGA | 0.0934
ACGGATCT | -0.275
CCGGAGAC | 0.00524
ACAGACCA | -0.00024
CAGAGGAC | 0.0554
ACTAGTAT | 0.227
ATAGAACC | 0.0363

Sequence | PBM E-score
AGAAAACG | -0.0675
GGACTCCA | 0.176
CCCCATGA | 0.0369
CCATCAAG | 0.00671
ACCATCCA | -0.051
CACGTATA | 0.104
CGTCCGGA | -0.0836
ACGTCTAT | 0.0252
CCTGGGCA | -0.0533
ATTAAGCG | 0.146
TAACCTCA | -0.00381
CATCGGAC | -0.0466
AGCTATGA | 0.255
AAATCTGA | 0.00848
GCGGTGAA | -0.174
GGCAAACC | -0.274
AGCGTTCA | -0.194
CATACCTC | 0.0495
ACTCATCC | 0.455
AAACAGCC | -0.213
GCTACGAA | -0.0422
ATGATTGG | 0.286
ACCTCTCT | -0.246
ATCAGGCA | 0.147
GCATGTAA | -0.267

Sequence | PBM E-score
AGCCTGAC | 0.0969
AAAGTGAT | 0.177
CAATCTGG | -0.19
CACATTAA | 0.148
TAGATCAA | 0.0854
GATACCCA | 0.137
AACGCTCC | -0.161
GACCCACC | -0.00254
ACTAAAGC | 0.264
GCACGATA | 0.0271
AAAGCGTA | -0.235
AATTTCGT | -0.0756
AGATAAAA | 0.0997
AGGAACTC | 0.0535
GACACATA | 0.0972
AGTAACGA | 0.0276
AAGGTAGT | 0.124
AACGCAGC | -0.23
AAGCGACA | -0.208
CGCTTGAG | -0.00393
AGGTCCAT | -0.148
CACTCACA | 0.0403
TCGCTAAA | 0.0799
ACTGTTCA | -0.0258
CGATATCA | -0.102

Sequence | PBM E-score
AATCGCCG | 0.07
GCCGGTGA | 0.146
CACCGTCC | -0.0361
CCGACACA | 0.0878
AGGCCGCA | -0.226
ATTATATA | 0.244
CGAGTTAG | 0.0758
GACAGGGA | -0.114
AAAGCGTT | -0.0894
CCCGTAGG | -0.0914
CTACACAA | 0.111
GGCACCCA | -0.133
CCTCCATA | -0.0747
ATAGCCGG | 0.0779
CCTAACTA | -0.0731
CGCTCCCA | -0.186
ACATTCTG | -0.0411
CAAGAGTC | 0.434
GTTTGTAA | -0.0586
CCCAGATC | -0.306
CACTGGGG | -0.176
CAGACAAA | 0.0225
